Reference: publication PMC4336329 (PLoS ONE, 2015)
Screen size: about 310,000 compounds; about 14,000 (4.5%) showed an effect of 50% or more. Effects have a minus sign here. This is one part of the list.

Target: human ether-à-go-go-related gene (hERG) potassium channel (human, UniProt Q12809)
Assay: primary screen, population patch clamp on CHO cells stably expressing hERG
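Also: peak tail current of the secondary pulse compared with the same well before compound.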

Chain of human ether-à-go-go-related gene (hERG) potassium channel (Q12809 whole entry, looked up): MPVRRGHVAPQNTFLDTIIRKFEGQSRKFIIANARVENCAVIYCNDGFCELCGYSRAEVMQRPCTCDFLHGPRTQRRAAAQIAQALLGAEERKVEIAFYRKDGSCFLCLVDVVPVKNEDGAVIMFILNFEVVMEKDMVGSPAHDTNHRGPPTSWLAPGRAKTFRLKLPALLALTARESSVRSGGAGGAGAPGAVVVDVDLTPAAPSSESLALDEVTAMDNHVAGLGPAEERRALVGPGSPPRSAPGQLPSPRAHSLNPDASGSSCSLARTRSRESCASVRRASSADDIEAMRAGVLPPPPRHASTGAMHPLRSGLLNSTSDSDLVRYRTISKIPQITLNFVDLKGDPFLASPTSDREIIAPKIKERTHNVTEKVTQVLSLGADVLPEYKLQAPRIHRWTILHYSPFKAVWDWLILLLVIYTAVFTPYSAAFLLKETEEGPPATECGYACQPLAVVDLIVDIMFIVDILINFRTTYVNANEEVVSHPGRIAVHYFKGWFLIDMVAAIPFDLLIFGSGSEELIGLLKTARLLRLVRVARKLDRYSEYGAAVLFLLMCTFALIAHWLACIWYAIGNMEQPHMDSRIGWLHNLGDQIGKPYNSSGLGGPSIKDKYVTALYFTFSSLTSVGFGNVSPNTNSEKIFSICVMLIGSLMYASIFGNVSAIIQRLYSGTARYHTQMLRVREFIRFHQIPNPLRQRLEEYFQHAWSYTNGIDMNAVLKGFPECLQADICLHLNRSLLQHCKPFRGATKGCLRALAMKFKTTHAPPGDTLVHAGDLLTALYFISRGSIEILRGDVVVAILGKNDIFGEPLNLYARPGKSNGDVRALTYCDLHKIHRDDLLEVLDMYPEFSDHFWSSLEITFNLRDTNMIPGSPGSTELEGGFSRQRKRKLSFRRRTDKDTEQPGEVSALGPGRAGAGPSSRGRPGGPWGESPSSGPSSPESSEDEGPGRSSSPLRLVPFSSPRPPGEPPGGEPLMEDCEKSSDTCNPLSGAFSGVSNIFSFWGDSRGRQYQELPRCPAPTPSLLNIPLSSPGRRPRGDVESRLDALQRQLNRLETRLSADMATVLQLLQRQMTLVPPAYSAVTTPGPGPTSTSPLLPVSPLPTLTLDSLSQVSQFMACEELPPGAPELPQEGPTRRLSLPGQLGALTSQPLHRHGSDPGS

Point of comparison: `CCN(C(=O)CSc1nc2cc(C(=O)OC)ccc2c(=O)n1Cc1ccco1)c1cccc(C)c1`, “hERG current change (%, negative = inhibition) at 10uM” value -6.91%. Against it:
- COc1ccc(/C=N/NC(=S)Nc2cccc(C(=O)O)c2)cc1 — higher, 15.9%
- CCOC(=O)c1cc2c(=O)n3ccccc3nc2n(CCOC)c1=NC(=O)c1ccncc1 — lower, -51.3%
- CCOC(=O)c1ccc(NC(=O)COc2ccccc2CNCCc2ccccc2)cc1.Cl — lower, -79.3%
- Cc1ccc(Oc2cc(NN3CCCCC3)c([N+](=O)[O-])cc2[N+](=O)[O-])c(Cl)c1 — lower, -7.28%
- Cc1ccc(S(=O)(=O)N2CCCC2CNC(=O)C(=O)NCc2cccs2)cc1 (centres unmarked) — lower, -23.2%
- Cc1nc(N)sc1C(=O)N/N=C/c1ccccc1[N+](=O)[O-] — higher, 43.7%
- CCCn1c(N)c(N(CCOC)C(=O)COC(=O)CSc2cc(C)c3ccccc3n2)c(=O)[nH]c1=O — higher, 1.53%
- N/C(=N\OC(=O)c1ccc([N+](=O)[O-])cc1)c1ccc(Br)cc1 — higher, 6.19%
- CCOc1ccccc1NC(=O)Cn1c(=O)n(CCC(=O)NC2CCCC2)c(=O)c2ccccc21 — higher, 5.15%
- O=C(c1ccc2c(=O)n3c(nc2c1)CCCCC3)N1CCCCC1 — higher, 17.5%
- CC(Oc1ccccc1)C(=O)N1CCN(c2ccc(N3CCCCCC3)nn2)CC1 (centres unmarked) — lower, -52.7%
- CCNC(=O)Cn1cnc2c1c(=O)n(C)c(=O)n2C — higher, 20.9%
- CCCOc1ccc(N2C(=O)CC(NCc3cccs3)C2=O)cc1 (centres unmarked) — lower, -18.6%
- C[C@H](NC(=O)[C@@H]1Cc2ccccc2CN1C(=O)OC(C)(C)C)C(=O)NCC1CCCO1 (some centres unmarked) — higher, 20.6%
- COc1ccc(NC(=O)C(C)(C)Oc2ccc(Cl)cc2)cn1 — lower, -23.3%
- CCCCCOCC(O)CCC(=O)NN (centres unmarked) — higher, 24.8%
- Cc1ccccc1C(C(=O)NC1CCCC1)N(C(=O)Cc1cccs1)c1ccc2c(c1)OCCO2 (centres unmarked) — higher, -5.9%
- CCOc1ccc(N2CC(C(=O)N3CCN(C(=O)c4ccco4)CC3)CC2=O)cc1 (centres unmarked) — lower, -63.4%
- COc1ccc(CC(=O)Nc2ccc3c(c2)CCC3)cc1S(=O)(=O)N1CCOCC1 — lower, -31.6%
- CC(O)CN1CCN(C(=O)CN2C(=O)NC(c3ccccc3)(c3ccccc3)C2=O)CC1 (centres unmarked) — higher, 5.27%
- CCOC(=O)C1=C(C)NC(=O)NC1c1cccnc1 (centres unmarked) — higher, -0.326%
- COc1ccc(C(=O)CN2CCN(CCN3C(=O)c4cccc5cccc(c45)C3=O)CC2)cc1 — lower, -26.5%
- COC(=O)c1ccc(-c2ncc[nH]2)cc1 — higher, -5.14%
- CCOC(=O)c1cnc(SCC(=O)c2ccc(C)cc2)nc1N — higher, 19.9%
- O=C(COC(=O)c1cc(S(=O)(=O)N2CCOCC2)ccc1Cl)NCCc1ccccc1 — lower, -23.3%
- Cc1ccc2c(c1)C1CC(C)(O2)N(c2cccc(C(=O)NCc3ccccn3)c2)C(=O)N1 (centres unmarked) — higher, 3.78%
- COc1ccc(NC(=S)Nc2cccc([N+](=O)[O-])c2)cc1 — higher, 3.68%
- CC(C)(C)c1cc(NC(=O)c2ccco2)no1 — lower, -7.04%
- O=C(Nc1cccc(S(=O)(=O)N2CCCC2)c1)c1ccncc1 — lower, -46.5%
- COC(=O)c1sccc1NC(=O)/C=C/c1ccc(Cl)cc1Cl — higher, 15.5%
- O=C(NCc1ccc(S(=O)(=O)Nc2ccccc2Cl)s1)c1ccccc1 — higher, -5.2%
- COc1ccc(OC)c(NC(=O)NCc2cccnc2)c1 — higher, 24.1%
- CCOC(=O)c1ccc(N2C(=O)CC(C)(CC)CC2=O)cc1 — higher, 3.55%
- COc1ccc(CC(=O)N2CCCC(C)C2)cc1 (centres unmarked) — higher, 18.1%
- COc1ccc(-c2ccc(C(C)=O)cc2)cc1[C@H]1[C@@H]2C=CCC[C@@]2(C)C(=O)N1Cc1ccccc1 — higher, 28.6%
- COc1ccc(/C=C(\NC(=O)c2ccc(C)cc2)C(=O)NCCCn2ccnc2)cc1OC — higher, 8.48%
- CCC(c1nnnn1Cc1ccccc1)N(Cc1ccco1)Cc1cc2cc(OC)ccc2[nH]c1=O (centres unmarked) — lower, -18.9%
- Cc1onc(-c2ccccc2)c1C(=O)c1c[nH]c(C(=O)NCc2ccncc2)c1 — higher, 5.17%
- Fc1cccc(Cc2noc(CN3CCN(C4CCc5ccccc5C4)CC3)n2)c1 (centres unmarked) — lower, -78.6%
- Cc1ccccc1C(=O)Nc1ccccc1NC(=O)c1ccccc1Br — higher, 25.4%
- CC12C=CC3(O1)C(C(=O)N(c1cccnc1)C3C(=O)NC1CCCCC1)C2C(=O)Nc1ccccc1 (centres unmarked) — higher, 13.6%
- CCCCn1c(N)c(N(CCOC)C(=O)C(C)Oc2ccc(Cl)cc2)c(=O)[nH]c1=O (centres unmarked) — higher, -6.37%
- O=C(CNS(=O)(=O)c1ccccc1)OCC(=O)c1ccc(OC(=O)c2ccccc2)cc1 — higher, -3.7%
- COc1ccc(N2CCN(C(=O)CSc3nnnn3C3CC3)CC2)cc1 — lower, -13.6%
- Cc1cc(C)nc(N/N=C/c2cn[nH]c2-c2ccccc2)n1 — higher, -6.34%
- CCCCCCCOc1ccc(C2(C)NC(=O)NC2=O)cc1 (centres unmarked) — higher, 11.3%
- COc1ccc(NC(=O)CSc2nnc(Cn3cnc4ccccc43)n2C)cc1 — higher, 4.13%
- CC(C)CN(CCOc1cccc(N2C(=O)C3=C(CCCC3)C2=O)c1)CC(C)C — lower, -42.7%
- COc1ccc(-c2cc(C(=O)Nc3nc4ccccc4s3)c3ccccc3n2)cc1OC — higher, 29.6%
- Cc1ccc(NC(=O)c2ccc(OC(=O)CCN3C(=O)c4ccccc4C3=O)cc2)cc1 — higher, 6.93%
- COc1ccc(N(C(=O)c2cnccn2)C(C(=O)NC2CCCCC2)c2cc(OC)c(OC)c(OC)c2)cc1 (centres unmarked) — higher, 17.4%
- COc1ccccc1C1=Nn2c(nnc2C2CCCCC2)SC1 — lower, -23.4%
